# Reference: the supplement of paper PMC10037445
# In all, about 2,900 compounds were measured (“IRF Lucia reporter activity, fold change vs agonist alone”: median about 0.9, highest 2% from about 2.8 on). This is one part of the list.
# Experiments:
# RAW-Dual [1] = test: IRF Lucia reporter activity, fold change vs agonist alone; cytotoxicity flag (confluency mask): not cytotoxic; higher = enhanced IRF activity
# How it was run: (§1)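 RAW-Dual macrophages (50,000 cells/well in DMEM, 384-well plates) received 50 nL of library stock by pin tool, then a PRR agonist 1 h later, and were kept at 37 °C, 5% CO2. After 20 hours, supernatant was read for IRF by QuantiLuc luminescence and for NF-κB by QuantiBlue absorbance at 620 nm. Reporter activity is fold change over agonist-alone wells. Cytotoxic wells had IncuCyte confluency below 70% of agonist controls in both mask sets.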
# RAW-Dual [2] = test: IRF Lucia reporter activity, fold change vs agonist alone; higher = enhanced IRF activity; details: library stock concentration (final ~1000-fold dilution): 10 mM, agonist: MPLA (TLR4) […]
# How it was run: as §1
# RAW-Dual [3] = test: IRF Lucia reporter activity, fold change vs agonist alone; cytotoxicity flag (confluency mask): cytotoxic (confluency <70% of control); higher = enhanced IRF activity
# How it was run: as §1
# [4] = agonist: 3'3'-cGAMP (STING) 10 ug/mL
# [5] = cytotoxicity flag (confluency mask): not cytotoxic
compound,measurement,setting,value
O=C(Nc1cccc(Cl)c1)Nc1ncc(CCNc2ncnc3ccsc23)s1 (library stock concentration (final ~1000-fold dilution): 10 mM),IRF Lucia reporter activity,RAW-Dual [1]; [4],0.242
same,IRF Lucia reporter activity,RAW-Dual [1]; agonist: LPS (TLR4) 0.1 ug/mL,0.383
C=C(C)C1CCC2(C(=O)OC3OC(COC4OC(CO)C(OC5OC(C)C(O)C(O)C5O)C(O)C4O)C(O)C(O)C3O)CCC3(C)C(CCC4C5(C)CCC(OC6OCC(O)C(O)C6OC6OC(C)C(O)C(O)C6O)C(C)(CO)C5CCC43C)C12 (stereo not given) (library stock concentration (final ~1000-fold dilution): 2 mM),IRF Lucia reporter activity,RAW-Dual [1]; [4],0.987
same,IRF Lucia reporter activity,RAW-Dual [1]; agonist: LPS (TLR4) 0.1 ug/mL,1.05
Nc1ncnc2c1c(-c1cccc(OCc3ccccc3)c1)cn2C1CC(CN2CCCC2)C1 (stereo not given) (library stock concentration (final ~1000-fold dilution): 10 mM),IRF Lucia reporter activity,RAW-Dual [1]; [4],0.0506
same,IRF Lucia reporter activity,RAW-Dual [1]; agonist: LPS (TLR4) 0.1 ug/mL,0.0306
Nc1ncnc2c1c(-c1cccc(OCc3ccccc3)c1)cn2C1CC(CN2CCCC2)C1 (stereo not given),IRF Lucia reporter activity,RAW-Dual [2]; [5],0.0632
CCCC(NC(=O)C1C2CCCC2CN1C(=O)C(NC(=O)C(NC(=O)c1cnccn1)C1CCCCC1)C(C)(C)C)C(=O)C(=O)NC1CC1 (stereo not given) (library stock concentration (final ~1000-fold dilution): 10 mM),IRF Lucia reporter activity,RAW-Dual [1]; [4],1.07
same,IRF Lucia reporter activity,RAW-Dual [1]; agonist: LPS (TLR4) 0.1 ug/mL,1.05
CCCC(NC(=O)C1C2CCCC2CN1C(=O)C(NC(=O)C(NC(=O)c1cnccn1)C1CCCCC1)C(C)(C)C)C(=O)C(=O)NC1CC1 (stereo not given),IRF Lucia reporter activity,RAW-Dual [2]; [5],1.07
COc1cc2ncnc(Nc3cc(Br)c(O)c(Br)c3)c2cc1OC,IRF Lucia reporter activity,RAW-Dual [2]; [5],0.707
COc1cc2ncnc(Nc3cc(Br)c(O)c(Br)c3)c2cc1OC (library stock concentration (final ~1000-fold dilution): 10 mM),IRF Lucia reporter activity,RAW-Dual [1]; [4],0.594
same,IRF Lucia reporter activity,RAW-Dual [1]; agonist: LPS (TLR4) 0.1 ug/mL,0.688
O=S(=O)(N=Cc1c(O)ccc2ccccc12)c1cccs1 (library stock concentration (final ~1000-fold dilution): 10 mM),IRF Lucia reporter activity,RAW-Dual [1]; [4],0.709
same,IRF Lucia reporter activity,RAW-Dual [1]; agonist: LPS (TLR4) 0.1 ug/mL,0.968
Fc1ccc(CNc2ncnc3ccc(F)cc23)cc1 (library stock concentration (final ~1000-fold dilution): 10 mM),IRF Lucia reporter activity,RAW-Dual [1]; [4],0.209
same,IRF Lucia reporter activity,RAW-Dual [1]; agonist: LPS (TLR4) 0.1 ug/mL,0.415
O=C(NNS(=O)(=O)c1ccccc1F)c1cc(F)cc(-c2ccccn2)c1 (library stock concentration (final ~1000-fold dilution): 10 mM),IRF Lucia reporter activity,RAW-Dual [1]; [4],1.17
same,IRF Lucia reporter activity,RAW-Dual [1]; agonist: LPS (TLR4) 0.1 ug/mL,1.46
CCc1ccc(CCOc2ccc(CC3SC(=O)NC3=O)cc2)nc1.Cl (stereo not given) (library stock concentration (final ~1000-fold dilution): 10 mM),IRF Lucia reporter activity,RAW-Dual [1]; [4],0.403
same,IRF Lucia reporter activity,RAW-Dual [1]; agonist: LPS (TLR4) 0.1 ug/mL,0.888
CCc1ccc(CCOc2ccc(CC3SC(=O)NC3=O)cc2)nc1.Cl (stereo not given),IRF Lucia reporter activity,RAW-Dual [2]; [5],0.802
O=C1CCc2c(ccc3ccccc23)O1 (library stock concentration (final ~1000-fold dilution): 10 mM),IRF Lucia reporter activity,RAW-Dual [1]; [4],0.821
same,IRF Lucia reporter activity,RAW-Dual [1]; agonist: LPS (TLR4) 0.1 ug/mL,0.991
C[C@@H]1O[C@@H](O[C@@H]2C(=O)c3c(O)cc(O)cc3O[C@H]2c2ccc(O)c(O)c2)[C@H](O)[C@H](O)[C@H]1O (library stock concentration (final ~1000-fold dilution): 10 mM),IRF Lucia reporter activity,RAW-Dual [1]; [4],0.958
same,IRF Lucia reporter activity,RAW-Dual [1]; agonist: LPS (TLR4) 0.1 ug/mL,1.18
CN(CC(=O)N(Cc1ccc(C2CCCCC2)cc1)c1ccc(C(=O)NO)cc1)S(=O)(=O)c1c(F)c(F)c(F)c(F)c1F (library stock concentration (final ~1000-fold dilution): 10 mM),IRF Lucia reporter activity,RAW-Dual [1]; [4],0.0198
same,IRF Lucia reporter activity,RAW-Dual [1]; agonist: LPS (TLR4) 0.1 ug/mL,1.04
CCOc1cc(=O)[nH]cc1-c1ccc(CC(=O)Nc2cc(C(C)(C)C(F)(F)F)on2)c(F)c1 (library stock concentration (final ~1000-fold dilution): 10 mM),IRF Lucia reporter activity,RAW-Dual [1]; [4],0.884
same,IRF Lucia reporter activity,RAW-Dual [1]; agonist: LPS (TLR4) 0.1 ug/mL,0.726
Cc1c(OCC(F)(F)F)ccnc1C[S+]([O-])c1nc2ccccc2[nH]1 (stereo not given) (library stock concentration (final ~1000-fold dilution): 10 mM),IRF Lucia reporter activity,RAW-Dual [1]; [4],0.654
same,IRF Lucia reporter activity,RAW-Dual [1]; agonist: LPS (TLR4) 0.1 ug/mL,1.23
Cc1c(OCC(F)(F)F)ccnc1C[S+]([O-])c1nc2ccccc2[nH]1 (stereo not given),IRF Lucia reporter activity,RAW-Dual [2]; [5],0.944
CC(O)COCC1OC2OC3C(COCC(C)O)OC(OC4C(COCC(C)O)OC(OC5C(COCC(C)O)OC(OC6C(COCC(C)O)OC(OC7C(COCC(C)O)OC(OC8C(COCC(C)O)OC(OC1C(O)C2O)C(O)C8O)C(O)C7O)C(O)C6O)C(O)C5O)C(O)C4O)C(O)C3O (stereo not given) (library stock concentration (final ~1000-fold dilution): 10 mM),IRF Lucia reporter activity,RAW-Dual [1]; [4],0.962
same,IRF Lucia reporter activity,RAW-Dual [1]; agonist: LPS (TLR4) 0.1 ug/mL,1.23
CC(O)COCC1OC2OC3C(COCC(C)O)OC(OC4C(COCC(C)O)OC(OC5C(COCC(C)O)OC(OC6C(COCC(C)O)OC(OC7C(COCC(C)O)OC(OC8C(COCC(C)O)OC(OC1C(O)C2O)C(O)C8O)C(O)C7O)C(O)C6O)C(O)C5O)C(O)C4O)C(O)C3O (stereo not given),IRF Lucia reporter activity,RAW-Dual [2]; [5],0.967
COc1cc2c(Oc3ccc4[nH]c(C)cc4c3F)ncnc2cc1OCCCN1CCCC1.O=C(O)/C=C\C(=O)O,IRF Lucia reporter activity,RAW-Dual [2]; cytotoxicity flag (confluency mask): cytotoxic (confluency <70% of control),2.35
COc1cc2c(Oc3ccc4[nH]c(C)cc4c3F)ncnc2cc1OCCCN1CCCC1.O=C(O)/C=C\C(=O)O (library stock concentration (final ~1000-fold dilution): 10 mM),IRF Lucia reporter activity,RAW-Dual [3]; [4],0.783
same,IRF Lucia reporter activity,RAW-Dual [3]; agonist: LPS (TLR4) 0.1 ug/mL,1.92
c1ccc(Cn2c(-c3ccc(OCC(C4CCNCC4)n4c(-c5ccccc5)nc5ccccc54)cc3)nc3ccccc32)cc1 (stereo not given),IRF Lucia reporter activity,RAW-Dual [2]; [5],0.0524
